In all, about 310,000 compounds went through this assay and about 2,200 (0.71%) showed an effect of 50% or more. The effect is printed as a negative number. The list shows a part of the results.
Biological target: human ether-à-go-go-related gene (hERG) potassium channel (human, UniProt Q12809)
Experiment: primary screen, population patch clamp on CHO cells stably expressing hERG

Chain of human ether-à-go-go-related gene (hERG) potassium channel (Q12809 whole entry, looked up): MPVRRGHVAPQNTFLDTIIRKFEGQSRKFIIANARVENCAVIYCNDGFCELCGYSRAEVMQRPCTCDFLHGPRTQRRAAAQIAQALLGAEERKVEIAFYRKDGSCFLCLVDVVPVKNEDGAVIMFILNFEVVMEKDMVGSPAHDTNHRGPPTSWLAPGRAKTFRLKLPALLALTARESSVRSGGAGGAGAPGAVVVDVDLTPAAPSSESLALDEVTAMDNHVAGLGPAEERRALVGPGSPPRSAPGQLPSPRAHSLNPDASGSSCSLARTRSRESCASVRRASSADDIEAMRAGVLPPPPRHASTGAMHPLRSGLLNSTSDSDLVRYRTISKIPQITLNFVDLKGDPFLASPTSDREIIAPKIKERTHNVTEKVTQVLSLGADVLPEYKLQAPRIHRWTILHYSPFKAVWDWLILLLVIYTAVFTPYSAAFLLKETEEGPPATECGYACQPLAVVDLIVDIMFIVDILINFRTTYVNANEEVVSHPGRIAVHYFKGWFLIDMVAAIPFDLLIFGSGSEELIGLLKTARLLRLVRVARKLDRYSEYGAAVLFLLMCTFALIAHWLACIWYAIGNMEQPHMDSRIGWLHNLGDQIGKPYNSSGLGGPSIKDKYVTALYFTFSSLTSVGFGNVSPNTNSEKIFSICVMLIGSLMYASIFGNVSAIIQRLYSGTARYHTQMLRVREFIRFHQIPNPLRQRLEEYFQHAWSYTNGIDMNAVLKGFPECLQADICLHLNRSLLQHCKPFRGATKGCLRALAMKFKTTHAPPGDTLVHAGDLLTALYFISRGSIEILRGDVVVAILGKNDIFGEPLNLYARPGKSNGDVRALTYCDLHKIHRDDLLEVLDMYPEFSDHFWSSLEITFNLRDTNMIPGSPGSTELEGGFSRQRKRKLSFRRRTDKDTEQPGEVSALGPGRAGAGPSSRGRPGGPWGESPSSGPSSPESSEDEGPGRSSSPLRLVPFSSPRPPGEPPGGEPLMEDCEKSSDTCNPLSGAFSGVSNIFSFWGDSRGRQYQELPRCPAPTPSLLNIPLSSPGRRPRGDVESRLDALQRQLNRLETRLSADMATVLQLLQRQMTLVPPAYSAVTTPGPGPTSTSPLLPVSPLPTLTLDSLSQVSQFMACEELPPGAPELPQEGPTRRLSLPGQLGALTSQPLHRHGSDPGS

SMILES | hERG current change (%, negative = inhibition) at 1uM [%]
COc1cc(C(=O)OCC(=O)NC2CCCCC2)cc2c1OCCO2 | 9.84
CCC(OC(=O)CN1C(=O)C(=O)c2ccccc21)C(=O)Nc1ccc(S(N)(=O)=O)cc1 (stereo not drawn) | 9.97
COc1ccc(/C=N/NC(=O)CCn2nc(C)cc2C)cc1O | 9.84
O=[N+]([O-])c1ccccc1CNC1CCCc2ccccc21 (stereo not drawn) | 7.9
COc1ccc(C2CC(c3ccccc3)=NN2C(=O)COC(=O)c2cc(S(=O)(=O)N3CCOCC3)ccc2F)cc1 (stereo not drawn) | 3.93
Cc1nn(-c2ccccc2)c(C)c1/C=N/NC(=O)CSc1nc2ccccc2c(=O)n1-c1ccc(Br)cc1 | 9.52
O=C1NCCN2CCCC12 (stereo not drawn) | 12
Cc1cc(C(=O)NC(=S)Nc2cccc(NC(=O)C(C)C)c2)ccc1[N+](=O)[O-] | 8.15
O=C1CC(c2ccccc2)CC(O)=C1C=Nc1ccc(Cl)cc1 (stereo not drawn) | 12.8
Cc1cc(C)cc(-n2nnnc2SCC(=O)N2CCOCC2)c1 | 6.82
O=S(=O)(c1ccccc1)c1nc(-c2ccccc2)oc1N1CCCCC1 | -4.72
COc1ccc2[nH]c(C(=O)O)c(CCNC(C)=O)c2c1 | 10.4
CN(Cc1ccco1)c1ncnc2ccc(-c3ccc4c(ccn4C)c3)cc12 | 11
Cc1cccc(C2NC(=O)c3c(sc(C)c3C)N2)c1O (stereo not drawn) | 13.4
COc1ccc(C2=NOC(C)(c3sc(-c4ccc(Cl)cc4)nc3C)C2)cc1 (stereo not drawn) | 16.3
Nc1c(C(=O)NCC2CCCO2)sc(=S)n1-c1ccccc1 (stereo not drawn) | -1.36
CC(C)(C)OC(=O)CNC(=O)c1[nH]cnc1C(=O)NCCCCC[NH3+].[Cl-] | 14
CC(C)NC(=O)C(C)N1CCN(S(=O)(=O)c2ccc3ccccc3c2)CC1 (stereo not drawn) | 9.27
CCCN(Cc1cc2ccccc2[nH]c1=O)C(=O)c1cccc([N+](=O)[O-])c1 | 5.23
O=S(=O)(c1ccc(F)cc1)n1ccc(-c2cnc(-c3ccccc3)s2)n1 | 1.8
CCN(CC(=O)Nc1cccc(S(=O)(=O)N2CCCC2)c1)CC(=O)Nc1ccccc1OC | 9.22
Cc1ccc(CSCC(=O)Nc2ccccc2F)cc1 | 12

SMILES | hERG current change (%, negative = inhibition) at 1uM [%]
COC(=O)C1=C(c2ccc3ccccc3c2)C[C@@H]2CC[C@H]1N2C(=O)NCc1ccco1 | 6.98
Cc1cccc(-n2nnnc2SCn2nnc3ccccc3c2=O)c1 | 5.97
O=C(Nc1ccccc1C(=O)NCc1ccco1)c1ccco1 | 4.62
COCCCNC(=O)Cn1c(=O)n(Cc2ccc(C(=O)NCCc3ccc(OC)c(OC)c3)cc2)c(=O)c2ccccc21 | 0.715
O=C(CN1C(=O)NC2(CCCc3ccccc32)C1=O)c1ccc(F)cc1 (stereo not drawn) | 5.94
O=C(CSCc1ccccc1Cl)N/N=C/c1ccco1 | 14.1
COc1cccc(CNS(=O)(=O)c2cc(CN3C(=O)c4cccnc4C3=O)ccc2OC)c1 | 11.9
C=CCN1C(=O)CSc2ccc(C(=O)NC3CCCCC3)cc21 | 16.9
N=C1/C(=C/c2cccs2)C(=O)N=C2SN=C(SCc3ccccc3)N12 | 6.6
COc1ccc(-c2nc3ccccc3n2OCC(=O)O)cc1 | 10.6
CCN(CC)S(=O)(=O)c1ccc(-c2nnc(SCC(=O)N3CCOCC3)o2)cc1 | 3.72
N=C1C(c2nc3ccccc3[nH]2)=C(O)CN1c1ccc(CC(=O)O)cc1 | 9.74
O=C(COC(=O)/C=C/c1ccc(C(F)(F)F)cc1)NC1CCCC1 | 9.55
Cn1c(=O)oc2cc(S(=O)(=O)N3CCCC(C(=O)NCc4ccc5c(c4)OCO5)C3)ccc21 (stereo not drawn) | -2.37
Cc1ccc(C(=O)N/N=C\c2sccc2C)cn1 | 9.72
N#Cc1cn(-c2ccccc2)nc1-c1cc2ccccc2oc1=O | 13.4
COc1ccc2nc(Nc3nc(-c4ccncc4)cs3)sc2c1 | 12
COc1ccc(CCC(=O)N2CCN(S(=O)(=O)c3cccc(C(F)(F)F)c3)CC2)cc1OC | 1.18
O=C(c1cccs1)N(Cc1cccc(F)c1)C1CCS(=O)(=O)C1 (stereo not drawn) | 1.22
CNC(=O)Cc1nc2ccccc2n1CC(=O)Nc1cc(C)cc(C)c1 | 2.79
O=C(COC(=O)c1cncc(Br)c1)NCCC1=CCCCC1 | 13.6
CCOC(=O)c1ccn(-c2nc(-c3ccco3)cc(C(F)(F)F)n2)n1 | 8.49

SMILES | hERG current change (%, negative = inhibition) at 1uM [%]
COc1ccc(N2CC(C(=O)Nc3nnc(Cc4ccccc4)s3)CC2=O)cc1 (stereo not drawn) | 7.03
CCOC(=O)c1c(C)[n+](-c2ccc(C)cc2)c(CC)c2cc(OC)c(OC)cc12.[Cl-] | 6.93
Cc1cc(C(=O)CN2C(=O)NC3(CCCc4ccccc43)C2=O)c(C)n1Cc1cccs1 (stereo not drawn) | 10.9
O=C(O)CSc1nc2ccccc2n1C1CCCCC1 | 13.8
C=CCOc1ccc(CNCCO)cc1OCC.Cl | -6.01
O=C(CC1CCCCC1)NCc1ccccc1Cl | 11.3
CC1CC(C)(C)NC(=S)N1CCC(=O)N1CCc2ccccc2C1 (stereo not drawn) | 9.34
O=C(Nc1cccc2[nH]ncc12)c1ccc(F)cc1 | -1.68
Cc1cccc(NC(=O)c2cc(S(=O)(=O)N3CCOCC3)cn2C)c1C | 9.61
O=C(CSc1ncn[nH]1)NCCCc1ccccc1 | 7.45
Cc1c(C(=O)N2CCN(c3ccccc3F)CC2)sc2ncn(CC(=O)N3CCOCC3)c(=O)c12 | 0.425
CCCCn1c2c(c3ccccc31)CCc1nonc1-2 | 3.49
O=C(CCn1c(=O)oc2ccccc21)N(Cc1ccccc1)c1ccccn1 | -5.59
CC(=O)NCCC(=O)N1CCCC(CNC(=O)c2ccc(-c3ccccc3)cc2)C1 (stereo not drawn) | 9.78
COc1ccc(C2CC(c3ccc(Br)cc3)=NN2C(=O)CCC(=O)O)cc1OC (stereo not drawn) | 12.8
COc1ccc(CN2C(=O)C(CC(C)C)Nc3ncnc(N4CCOCC4)c32)cc1.O=C(O)C(F)(F)F (stereo not drawn) | 13.6
COc1ccc(CCn2c(SCC(=O)Nc3cc(C)on3)nc3ccccc3c2=O)cc1OC | 3.68
O=C(NCCCN1CCCC1=O)c1nnc(Cc2c(F)cccc2Cl)o1 | 6.04
CC1CCCCC1NC(=O)CN1C(=O)c2ccccc2S1(=O)=O (stereo not drawn) | 11.9
CCOC(=O)C(=O)/C(=C\N(C)C)c1onc(-c2ccccc2Cl)c1C(=O)OC | 6.39
CC(NC(=O)c1cc(Br)ccc1Br)c1ccccc1 (stereo not drawn) | 9.65
Cc1ccc2c(c1)C(c1ccc([N+](=O)[O-])cc1)=NNC(c1ccc(Br)cc1)=N2 | 4.32

SMILES | hERG current change (%, negative = inhibition) at 1uM [%]
Cc1ccccc1C(=O)OC1OC(=O)C(Cl)=C1Nc1ccccc1 (stereo not drawn) | 13.8
CN(C)C(=O)/C(C#N)=C\c1cc(Br)c(Sc2ccc(Cl)cc2)o1 | 3.03
CCN(CC)S(=O)(=O)c1ccc(NC(=O)c2cnc(C)cn2)cc1 | 13.4
Cc1nn(C)c(Cl)c1CN1CCCC(CCC(=O)NCc2ccccc2F)C1 (stereo not drawn) | 8.42
CCOC(=O)c1[nH]c(C)c(C(=O)NCc2ccccn2)c1C | -1.38
Cc1ccc(C2CCN(C(=S)NC(C)C)C2)cc1 (stereo not drawn) | 13.9
COc1ccc(OCCCC(=O)N(C)CC(=O)Nc2c(C)cccc2C)cc1 | 4.32
COC(=O)c1ccc(NC(=O)C2CCCN2S(=O)(=O)c2ccc(OC)cc2)cc1 (stereo not drawn) | -8.74
O=c1[nH][nH]c(-c2ccccc2)c1C=Nc1cccc(Cl)c1 | 12.1
COC(=O)c1ccc(CSc2nnc(NCc3ccccc3)s2)o1 | 2.86
O=C(Oc1ccc(=O)n(-c2ccccc2)n1)c1cccc(Cl)c1 | 8.91
CCC(C)[C@@H](C(=O)NCC1CCC(C(=O)O)CC1)n1nnc2ccccc2c1=O (stereo partly drawn) | -0.545
CCCn1nnc(NC(=O)/C=C/c2ccco2)n1 | 10.4
Cc1cccc(NCC(=O)N/N=C\c2cccn2C)c1 | 7.32
COC(=O)c1ccc(COc2ccc(F)cc2)o1 | 6.94
CCOC(=O)c1c(-c2ccc(OC)cc2)csc1NC(=O)C1CCCO1 (stereo not drawn) | 13.4
O=C(NC1CCCC1)C(c1ccncc1)N(C(=O)c1csnn1)c1ccccc1 (stereo not drawn) | 7.99
Cc1cccc(NC(=O)C2c3ccccc3Oc3ccccc32)n1 | 0.086
Cc1oc(-c2ccccc2F)nc1CS(=O)CC(=O)NCc1ccccn1 (stereo not drawn) | 7.41
CCOc1ccc(CCNC(=O)CSc2cc(=O)n(C)c3ccc(Cl)cc23)cc1OCC | -7.23
CCCCC1(CCCC)C(=O)NC(=Nc2cccc(C)c2)NC1=O | 12.2
